# Reference: the BET-seq Pho4 binding data (Le et al. 2018)
# The list shows a part of the results. These are noisy estimates, calculated here from bound and input reads.
# Target: T1, Pho4 (S. cerevisiae) (UniProt P07270)
# T1 sequence: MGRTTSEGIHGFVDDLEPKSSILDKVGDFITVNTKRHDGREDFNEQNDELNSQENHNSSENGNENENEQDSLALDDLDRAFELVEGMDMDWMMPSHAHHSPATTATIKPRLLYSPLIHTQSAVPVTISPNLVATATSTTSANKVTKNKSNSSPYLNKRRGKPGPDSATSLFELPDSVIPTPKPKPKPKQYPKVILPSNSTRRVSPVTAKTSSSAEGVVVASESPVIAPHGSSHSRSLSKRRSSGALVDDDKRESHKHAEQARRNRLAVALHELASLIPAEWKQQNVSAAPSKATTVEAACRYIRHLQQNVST
# Assay: relative binding free energy (BET-seq); higher = weaker binding
# Details: reference: library average
row,Sequence,relative binding free energy [kcal/mol]
1,TGCATCACGTGAGTCG,0.4
2,GGGTACACGTGATAGG,0.16
3,TTATGCACGTGATTGC,0.2
4,TGGAGCACGTGCTGGG,-0.21
5,GGACACACGTGGGGTT,-0.15
6,TCGGCCACGTGTAGGT,0.02
7,GTTGGCACGTGGTGGA,-0.04
8,GGTGACACGTGATGTG,0.12
9,TTTATCACGTGATTGA,0.26
10,GCGGCCACGTGGTAGG,-0.11
11,GGGGCCACGTGTACAG,0.13
12,AAAGACACGTGTTTGG,0.04
13,CATAACACGTGTAGGT,0.03
14,AGTTGCACGTGGCTGG,0
15,AATAGCACGTGATTTT,0.15
16,TAGGCCACGTGTGGCG,-0.01
17,CTATTCACGTGTTGGT,0.24
18,GTGGGCACGTGGCAAG,-0.14
19,GTTCTCACGTGGGAGG,0.12
20,ATGCTCACGTGATATG,0.28
21,TTTTTCACGTGGAGCC,0.5
22,AGGGTCACGTGGGCTT,-0.06
23,GTGTGCACGTGTAGTC,0.11
24,GGGTGCACGTGAGGGC,0.21
25,GTGTTCACGTGTAAGT,0.37
26,TAGGTCACGTGACGGA,0.05

row,Sequence,relative binding free energy [kcal/mol]
1,AAATGCACGTGGGGAT,-0.18
2,GTTCACACGTGGGGAG,0.05
3,AAGGTCACGTGTTAGA,0.25
4,TTGTGCACGTGTAGTG,-0.02
5,ATCGGCACGTGAATGT,0.14
6,GTTTGCACGTGGGTGC,0.03
7,AGTCGCACGTGGGGTT,-0.29
8,TATATCACGTGAAATT,0.35
9,AATGTCACGTGGTCAT,0.07
10,TAATGCACGTGTGAAT,0.12
11,CGTTGCACGTGAGTGA,0.09
12,CGGGTCACGTGTGCTG,0.12
13,GGTTTCACGTGACTAG,0.32
14,TTTGGCACGTGTCCGT,-0.16
15,AGAGGCACGTGGTGAG,-0.13
16,CGTCGCACGTGGGGGG,-0.2
17,TTTTACACGTGTGGGT,0.23
18,CAGGGCACGTGCAGGG,-0.08
19,TCTTACACGTGAGTGG,0.27
20,TAAGGCACGTGGTCGT,-0.19
21,GGGGGCACGTGAGGGT,0.19
22,CATTACACGTGGGAGG,-0.08
23,GAATGCACGTGATATG,0.04
24,TTGCACACGTGAGTGG,0.3
25,TGTGACACGTGGTATA,-0.1
26,TAGTACACGTGAGTTA,0.26

row,Sequence,relative binding free energy [kcal/mol]
1,AGGTTCACGTGCTTTA,0.21
2,GGGGGCACGTGTGTCT,-0.06
3,AAAATCACGTGGTGTC,0.18
4,GTAGGCACGTGGAGTG,-0.14
5,GGAGTCACGTGAATTT,0.29
6,TGGGGCACGTGATGAA,-0.04
7,TGAACCACGTGTGTTT,0.05
8,ATTCTCACGTGTTAGT,0.11
9,GGCGCCACGTGAGGGG,0.18
10,TTGGTCACGTGATGTA,0.22
11,AGGGGCACGTGAACAG,0.1
12,GGGTACACGTGTTAGG,0.08
13,GTGGGCACGTGCGGCG,-0.18
14,ATGGTCACGTGATTCG,0.03
15,TCAGTCACGTGATGCG,0.16
16,TCCGGCACGTGGTGAG,-0.19
17,CGTTGCACGTGGTATT,-0.01
18,GGTTGCACGTGACGGT,0.22
19,TGCGACACGTGTGTTT,0.09
20,TAGTACACGTGCGTTG,0.05
21,GGATTCACGTGCAGTA,0.4
22,AGTGTCACGTGCTGAA,-0.02
23,TTGCGCACGTGGGGGA,-0.27
24,CGGTGCACGTGTGGCT,0.02
25,GAGGCCACGTGTTGGA,-0.03
26,CCGTGCACGTGGGGGG,-0.1

row,Sequence,relative binding free energy [kcal/mol]
1,CAGATCACGTGGGAGT,0.06
2,GATGTCACGTGCGAGT,0.17
3,ATGTTCACGTGTGCAG,0.25
4,ATGTTCACGTGGTCGG,0.2
5,GTTTGCACGTGGAGGA,0.07
6,GGAAGCACGTGGGAAG,-0.05
7,ATGGCCACGTGGTATT,-0.11
8,ATATGCACGTGAGGCA,0.11
9,TAGGTCACGTGCTGCG,0.02
10,TTAAACACGTGTGGAA,0.09
11,GCCGGCACGTGGGGCG,-0.16
12,GGATGCACGTGAAGGT,0.16
13,TGGATCACGTGGCGTT,0.04
14,TATGGCACGTGATGTG,0.01
15,GGTTTCACGTGCATAT,0.37
16,AGTAGCACGTGTGGCA,-0.1
17,TAAGTCACGTGTTTTC,0.09
18,TATCGCACGTGTCGTT,0.01
19,AACGGCACGTGGGGTT,-0.24
20,TAGGACACGTGAGTTC,0.53
21,AGGTTCACGTGGAGTA,0.27
22,TATAGCACGTGATTCG,0
23,GTGGGCACGTGGATAG,-0.01
24,TAGTGCACGTGGCGGT,-0.05
25,AGGTGCACGTGGTTTG,-0.15
26,AGGAACACGTGTGCTG,0.04

row,Sequence,relative binding free energy [kcal/mol]
1,AAGGTCACGTGTTCGT,0.09
2,TGCTGCACGTGTATTG,-0.08
3,CTTTTCACGTGTTCGG,0.15
4,ATTTACACGTGGTGAA,0.05
5,TTAGACACGTGGAGAG,0.19
6,CGGTTCACGTGCGGAG,0.25
7,GTTCACACGTGGGTAG,0.05
8,TGTGGCACGTGGGAAT,-0.03
9,AGGTACACGTGGGCTG,-0.16
10,TGTTCCACGTGGCATT,0
11,TAGTTCACGTGATTAA,0.37
12,CGGTTCACGTGGTGCT,0.18
13,AGTTTCACGTGTTCAT,0.27
14,GTAGTCACGTGTTCTT,0.1
15,ACGGTCACGTGAGAGG,0.17
16,ACATGCACGTGGTGTT,-0.29
17,AGCATCACGTGGTGTT,0.13
18,GTGAACACGTGTAGGT,0
19,TGCGACACGTGTTGGG,-0.05
20,TGGTTCACGTGAAATA,0.56
21,AGGGCCACGTGATGGG,0.11
22,GCTAGCACGTGTTATG,0.02
23,TGAAACACGTGTTGGG,0.17
24,GGGTGCACGTGGCGGG,-0.07
25,TCTAACACGTGGTGTT,0.12
26,TATGTCACGTGTGCGG,0.13

row,Sequence,relative binding free energy [kcal/mol]
1,GGCAACACGTGTTGTA,0.1
2,AGCGGCACGTGGAGAG,0
3,TCGGTCACGTGTTCGT,0.16
4,AGATACACGTGCGAGG,0.16
5,CACGTCACGTGGGGGG,-0.11
6,CGAGGCACGTGTGAGT,0.09
7,ATCAGCACGTGGGAGT,-0.19
8,AGGGTCACGTGTTTGG,0.17
9,TGGCGCACGTGTGGGC,0.04
10,GGTTGCACGTGCGGGG,0.01
11,GGTAGCACGTGCTGTG,-0.05
12,TGCAGCACGTGGAGGT,-0.09
13,AAAATCACGTGGTTTT,0.15
14,TTGGCCACGTGTGTAT,0
15,AAAATCACGTGTGGGG,0.34
16,GTGGACACGTGGTTTA,0.09
17,AGGTGCACGTGTCACG,0
18,CGGGGCACGTGTATGG,-0.01
19,TGTGACACGTGGTGAT,0
20,TAGTGCACGTGTTATT,-0.05
21,GGGGGCACGTGCGAGG,-0.09
22,TGGTTCACGTGGCACG,0.25
23,GGGCTCACGTGGGTGT,0.1
24,TATCTCACGTGATTAG,0.28
25,TGTGGCACGTGCGTCT,-0.26
26,TTTGGCACGTGTACTT,-0.03

row,Sequence,relative binding free energy [kcal/mol]
1,TAGGACACGTGAGGAT,0.34
2,GTTCGCACGTGTGGTG,0.08
3,GGAAGCACGTGAGGGC,0.13
4,GTAGACACGTGTCGTG,-0.02
5,GTTTGCACGTGTAATT,0.24
6,ATCTACACGTGAGGGT,0.07
7,CGTAACACGTGTTTTG,0.02
8,TAGTTCACGTGTCATA,0.11
9,ATTGGCACGTGGGCGG,-0.31
10,ATCAGCACGTGTTAGT,-0.01
11,GGACGCACGTGAGGCG,0.14
12,GGTGTCACGTGGTCCT,0.03
13,GTCTGCACGTGGTGTG,-0.13
14,GAGATCACGTGGAGGG,0.23
15,GTGAGCACGTGCTTAG,-0.1
16,AAATACACGTGGTGGT,-0.08
17,TAGTTCACGTGGTTAC,0.35
18,TTAGTCACGTGCGGTG,-0.01
19,TTAAACACGTGGTTCG,-0.02
20,GTTATCACGTGTTGAG,0.06
21,AGATTCACGTGTGGTT,0.24
22,TCGGGCACGTGGGATG,-0.1
23,CATTGCACGTGAGATT,0.23
24,GGCTTCACGTGGATAT,0.26
25,GGGAGCACGTGAACGG,0.14
26,TCAAACACGTGGGGGG,-0.22

row,Sequence,relative binding free energy [kcal/mol]
1,GAAGTCACGTGTAAGG,0.34
2,AGGGTCACGTGGGCGT,-0.06
3,ATTAGCACGTGATGTA,0.05
4,GAGTTCACGTGGGGGA,0.31
5,TTAATCACGTGGTGGA,0.1
6,TAGTTCACGTGAATAT,0.43
7,TTGTTCACGTGTAAGA,0.32
8,TTCGACACGTGATTGG,0.13
9,GAGGTCACGTGGGTCA,-0.06
10,TGGAGCACGTGGATAA,-0.03
11,TCGGCCACGTGTGGAT,0.22
12,TATGTCACGTGTGCCG,0
13,TCGTTCACGTGGCAGT,0.21
14,ATCATCACGTGATGGG,0.33
15,ATGCTCACGTGGGCGT,0.09
16,AGTGACACGTGGCGTA,-0.23
17,AGTCGCACGTGGTTTT,0.11
18,ATGCTCACGTGCGTTG,0.18
19,AGTGTCACGTGGCGGT,0.05
20,AATAGCACGTGGGAGT,-0.07
21,TTTGGCACGTGTCGGG,-0.22
22,CACTACACGTGGTGGT,0.16
23,GGCTTCACGTGGTAGC,0.43
24,ATGGCCACGTGTAGTA,-0.08
25,AGGAACACGTGGAGAG,0.11
26,ACGTGCACGTGGTTAG,-0.13

row,Sequence,relative binding free energy [kcal/mol]
1,TAATACACGTGAGGAG,0.2
2,GTTTACACGTGATGGG,0.15
3,TCTTTCACGTGTAATT,0.35
4,TATGGCACGTGAAGAT,-0.04
5,GGGGGCACGTGGCTCA,-0.23
6,AGTAACACGTGTAGGA,0.05
7,ATCAGCACGTGGTGTT,-0.23
8,TTAGTCACGTGTTAGC,0.12
9,GCATACACGTGGGGTG,0.09
10,GGTGGCACGTGGCGGG,-0.1
11,AATAGCACGTGTGAGG,-0.15
12,GTCTACACGTGTAGGG,0.07
13,TAACTCACGTGGGTGG,0.15
14,GGGTCCACGTGTTTTA,0
15,ATAAGCACGTGAGAGG,0.1
16,CTAGTCACGTGGTTAG,0.09
17,TTTATCACGTGAGGTT,0.31
18,CTGTTCACGTGAAAGT,0.43
19,CTTAGCACGTGGGAAT,-0.03
20,GTGCTCACGTGGGGGT,0.16
21,AGAGTCACGTGTGCGA,0.09
22,ATTATCACGTGAATTG,0.33
